# Source: publication PMC5333110
# Entries with a single value are a further part of the results.
# Molecular target: Nterm1 (UniProt position 1, -----MQIFVK)
# Assay: NMR
# Details: 21.5 °C, 100 mM KCl, 2 mM Tris, 2 mM formate, 2 mM piperazine, 2 mM imidazole, 0.2 mM DSS, free ubiquitin, folded throughout the pH range (checked by SOFAST-HMQC), 0.5 mM
substance,measurement,setting,value
Ubiquitin (Homo sapiens),pKa,"Gln2-1HN shift, SOFAST-HMQC",9.18
same,pKa,"Gln2-15N shift, SOFAST-HMQC",9.15
same,pKa,"Met1-1Hα shift, HA(CA)N",9.16
same,pKa,"Met1-15N shift, HA(CA)N",9.14
